From PubChem BioAssay AID485344 (National Center for Advancing Translational Sciences (NCATS), 2010)
Values joined by “and” are separate entries in the source; they are usually repeats but may differ in a detail not shown here. Equal entries are not always repeated. In all, about 340,000 compounds went through this assay and about 6,900 (2%) were called active. Rule as the data show it: active = inhibition above about 30%; inactive = below that, where a call was filed. This is a selection; strong and weak results do not stand in their true shares. Entries without a call were filed so in the source.
Also: 0% is about no effect.

What follows are molecules tested against D(2) dopamine receptor (Homo sapiens) (UniProt P14416) (assay: HTS Assay for Allosteric Antagonists of the Human D2 Dopamine Receptor: Primary Screen for Antagonists). Settings: HEK293 TREx D2 cells, calcium flux, dopamine EC80; at 10 µM; stronger effect = higher value.
UniProt P14416, sequence (P14416 whole entry, looked up): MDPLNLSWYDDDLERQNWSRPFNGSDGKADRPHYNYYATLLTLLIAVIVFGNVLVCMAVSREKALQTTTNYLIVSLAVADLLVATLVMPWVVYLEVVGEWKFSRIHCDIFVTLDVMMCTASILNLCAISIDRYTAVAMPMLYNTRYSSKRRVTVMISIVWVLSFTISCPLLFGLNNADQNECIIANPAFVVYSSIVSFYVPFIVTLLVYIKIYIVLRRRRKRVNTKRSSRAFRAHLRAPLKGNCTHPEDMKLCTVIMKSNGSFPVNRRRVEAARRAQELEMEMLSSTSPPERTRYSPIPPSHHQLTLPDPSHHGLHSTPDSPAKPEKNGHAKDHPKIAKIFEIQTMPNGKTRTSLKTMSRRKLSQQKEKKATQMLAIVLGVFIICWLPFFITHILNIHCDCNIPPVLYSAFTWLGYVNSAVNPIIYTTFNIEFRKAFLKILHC
Outline: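 Measurement of antagonist activity uses fluorescent calcium dye in inducible HEK293 T-REx D2 cells: 10 s baseline, compound addition with 180 s read, EC80 dopamine addition with a further 180 s read.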
With `O=C(CN1C(=O)COc2ccc(S(=O)(=O)NC3CCCC3)cc21)Nc1ccc(Cl)cc1F` the inhibition was 0.382%. Work on `CCOC(=O)c1c(C)[nH]c(CCC(=O)Nc2cc(Cl)ccc2OC)c1C` yielded an inhibition of 6.63%. `Cc1cc(C)c2sc(NC(=O)c3ccc(S(=O)(=O)N4CCCC4)cc3)nc2c1` gave an inhibition of 6.03%. Work on `CCOc1ccc(NC(=O)C2(c3cccs3)CCOCC2)cc1` yielded an inhibition of -8.74%. With `CCOC(=O)c1cccc(NC(=O)CCc2nc3cccnc3n2-c2ccccc2)c1` the inhibition was -14.2%. In the case of `COc1ccccc1C(=O)Nc1nc2nc(C)cc(=O)n2[nH]1`, the inhibition is reported as -14.9%. `CCc1nnc(SCc2c(F)cccc2Cl)c2cc3sccc3n12` was tested, and the inhibition was -0.0418%. Molecule `Cc1ccc(NC(=O)Cn2cc(C(=O)C3CC3)c3ccccc32)c(C)c1` has an inhibition of 16.9%. For `CSc1ccc(OC2CCN(Cc3ccccc3)CC2)cc1`, the inhibition was active: 30.6%. `CC(C)CCNC(=O)c1ccc2c(c1)NC(=O)C(CS(=O)(=O)Cc1ccc(F)cc1)N2` (stereo unspecified) gave an inhibition of 8.14%. Molecule `CC1=C(C(=O)N2CCN(c3cc(C)ccc3C)CC2)C2(CCC(C)CC2)OC1=O` (stereo unspecified) has an inhibition of 14.6%. `COc1ccc(C(C(=O)NCc2ccccc2)N(C(=O)Cn2nnc3ccccc32)c2cccc(OC)c2)cc1` (stereo unspecified) showed an inhibition of -21.9%. With `O=C(COc1ccc(F)cc1)OCc1cc(=O)n2nc(C3CCCCC3)sc2n1` the inhibition was 11%. In the case of `Cc1cc(-c2ccc(C)c(S(=O)(=O)NC(c3cccs3)C(C)C)c2)on1` (stereo unspecified), the inhibition is reported as -0.0835%. `COc1ccc(NC(=O)CCSc2nc(-c3ccc(OC)cc3)cc(C(F)(F)F)n2)cc1` showed an inhibition of -2.52%. With `O=C(NCCS(=O)(=O)N1CCN(c2ccccc2)CC1)C1CC(=O)N(c2ccc(F)cc2)C1` (stereo unspecified) the inhibition was 6.14% and active: 32.5%. `COc1ccccc1N1CCN(/N=C/c2cccc(OC)c2O)CC1` was tested, and the inhibition was active: 58.9%. With `CC1=C(C(=O)Nc2ccccc2C)C(c2ccncc2)n2nc(SCc3ccccc3Cl)nc2N1` (stereo unspecified) the inhibition was -21.2%. Work on `Cc1cccc(-c2noc(-c3ccccc3NC(=O)C3CC(=O)N(c4ccccc4C)C3)n2)c1` (stereo unspecified) yielded an inhibition of 7.01%. `Cc1cccc(NS(=O)(=O)c2ccccc2)n1` was tested, and the inhibition was active: 31.3%. Molecule `COc1ccc(S(=O)(=O)Nc2cccc(-c3ccc(N4CCC(C)CC4)nn3)c2)cc1OC` has an inhibition of 0.818%. With `Cc1nc2ccccc2n1CC(O)COC1CCCCC1` (stereo unspecified) the inhibition was active: 31.6%. For `CCn1c(=O)c2cc(C(=O)Nc3cc(OC)c(OC)c(OC)c3)sc2c2ccccc21`, the inhibition was 8.89%. Work on `COc1ccc(C(=O)Nc2nc3nc(C)c(Cc4ccccc4)c(=O)n3[nH]2)cc1OC` yielded an inhibition of -15.8%. `CC1=C(C(=O)Nc2cccnc2)C(c2cccc(Br)c2)n2nc(SCc3ccccc3)nc2N1` (stereo unspecified) gave an inhibition of 1.02%. `CCOc1ccc(CNC(=O)C2CCN(S(=O)(=O)N3CCC(C)CC3)CC2)cc1OC` was tested, and the inhibition was -6.55%. `CCCc1cc(=O)n2[nH]c(NC(=O)c3ccc(C(C)(C)C)cc3)nc2n1` showed an inhibition of 0.565%. `CC(=O)c1cccc(NC(=O)CN2C=NS(=O)(=O)c3ccc(C)cc32)c1` showed an inhibition of -3.51%. Molecule `CC(C)c1ccc(S(=O)(=O)c2nnn3c2nc(N2CCN(C)CC2)c2sccc23)cc1` has an inhibition of 11.2%. For `CC(=O)c1cccc(NC(=O)c2nc3ccccc3n(C)c2=O)c1`, the inhibition was 3.44%. Molecule `COc1cc(C2c3c(-c4ccccc4O)n[nH]c3C(=O)N2CCO)ccc1OCc1ccccc1` (stereo unspecified) has an inhibition of -12.2%. In the case of `CCOC(=O)c1ccccc1NC(=O)c1c2c(nc3ccccc13)C(=O)N(C1CCCCC1)C2`, the inhibition is reported as 0.183%. In the case of `Nn1c(SC/C=C/c2ccccc2)nnc1-c1ccncc1`, the inhibition is reported as active: 37.9%. `COc1cccc(CN2C(=O)c3ccccc3Sc3ccc(C(=O)N(C)Cc4ccccc4)cc32)c1` gave an inhibition of 5.38%. `COc1ccc(-c2nnc(SCc3cc(=O)c4cc(C)cc(C)c4[nH]3)n2C)cc1` gave an inhibition of 16.1%. Molecule `COc1ccccc1NC(=O)c1cc2ccc3cccnc3c2[nH]1` has an inhibition of -12%. With `CCCCNC(=O)CSc1nc2ccccc2nc1Cc1ccc(C)cc1` the inhibition was 4.98%. With `CCOC(=O)c1nccnc1C(=O)Nc1cccc(C(F)(F)F)c1` the inhibition was active: 31.9%. In the case of `COc1cccc2cc(-c3nc(Nc4cccc(C)c4)sc3C)c(=O)oc12`, the inhibition is reported as 0.865%. In the case of `O=C(c1cccs1)c1cn(CCOc2ccccc2F)c2ccccc12`, the inhibition is reported as 8.87%. `O=C(NCc1ccc2c(c1)CCN2C(=O)c1ccccc1)c1cc2ccccc2[nH]1` showed an inhibition of 11.7%. `CCc1ccc(NC(=O)c2sc3ncnc(N(C)C4CCCCC4)c3c2C)cc1` was tested, and the inhibition was -1.05%. In the case of `CCOc1ccc(C2C(C(N)=O)=C(C)Nc3nc(SCc4ccccc4)nn32)cc1` (stereo unspecified), the inhibition is reported as 1.66%. In the case of `COc1ccc(CNC(=O)Nc2ccc3c(c2)N(C)C(=O)c2ccccc2S3)cc1`, the inhibition is reported as 16.2%. `CC(=O)C1=C(c2ccc(C)cc2)N(C(C)=O)n2c(nnc2C2CCCCC2)S1` gave an inhibition of -2.05%. Work on `O=C(CN1C(=O)COc2ccc(S(=O)(=O)N3CCCC3)cc21)N1CCN(c2ccccc2)CC1` yielded an inhibition of 3.41%. In the case of `O=C(CSc1ncc2c(n1)-c1ccc(Cl)cc1N(Cc1ccccc1)S2(=O)=O)Nc1ccc(F)c(F)c1`, the inhibition is reported as -10.7%. `CCOC(=O)C1CCCN(CC(=O)N2CCCc3c2c(=O)oc2ccc(OCc4ccccc4)cc32)C1` (stereo unspecified) gave an inhibition of -2.17%. Work on `CCN1CCN(CCCNC(=O)c2cc3c(s2)-c2ccccc2OC3)CC1` yielded an inhibition of -18%. In the case of `COc1cc(OC)cc(C(=O)Nc2cc(-c3nc4cc(Cl)ccc4o3)ccc2Cl)c1`, the inhibition is reported as -6.6%. `CCC(C)NCCOc1ccc(C)cc1[N+](=O)[O-]` (stereo unspecified) was tested, and the inhibition was active: 53.7%. Molecule `N#C/C(=C\c1ccc(-c2ccc(C(=O)O)cc2)o1)C(=O)Nc1ccccc1C(=O)O` has an inhibition of -8.96%. `Cc1nn(CCC(=O)Nc2cc(F)ccc2F)c(=O)c2nn(-c3ccccc3)c(C)c12` was tested, and the inhibition was 1.56%. In the case of `CC1CCCCN1C(=O)CSc1n[nH]c(-c2ccccc2Cl)n1` (stereo unspecified), the inhibition is reported as -1.68%. With `O=C(CC1N=C2c3ccccc3N=C(SCc3cccc(Cl)c3)N2C1=O)NCc1ccc2c(c1)OCO2` (stereo unspecified) the inhibition was 8.67%. For `COc1cc(Nc2nc(SCC(=O)c3ccc(Br)cc3)nc3ccccc23)cc(OC)c1`, the inhibition was 24.6%. Work on `CCOC(=O)c1ccc2c(c1)N(CC(=O)N(C)c1ccccc1)C(=O)c1ccccc1S2` yielded an inhibition of 17.7%. In the case of `COc1ccccc1NC(=O)c1cc(=O)c2ccc(C)c(C)c2o1`, the inhibition is reported as -2.95%. With `COc1ccc(-c2cn(-c3ccc(C)cc3)c(S(=O)(=O)CC(=O)Nc3ccc(F)cc3)n2)cc1` the inhibition was 8.24%. With `CCN1C(=O)c2cccc3c(N)ccc(c23)C1=O` the inhibition was active: 60.5%. Molecule `Cc1ccc(Cc2c(C)nc3nc(SCC(=O)NC4CCC(C)CC4)nn3c2C)cc1` (stereo unspecified) has an inhibition of 1.38%.
